Patent US7592316B2, “Peptides as NS3-serine protease inhibitors of hepatitis C virus” (Schering Corporation, priority 2000, dated 2009)
*1 amine or outer side, *2 acyl side, *3 side chain or, on linkers, in order; H or OH if unused. Where a SMILES comes first, the peptide text is derived from it. [ ]: non-standard residue; d: D form. The star is where a group is joined. ξ: configuration not given here. Pro(3R,4S-CMe2) = CC1(C)[C@@H]2[C@@H](C(=O)O)NC[C@@H]21; Pro(3S,4R-CMe2) = CC1(C)[C@H]2[C@@H](C(=O)O)NC[C@H]21; X67 = O=C(C(=O)[*:2])C(CC1CC1(F)F)N[*:1]; Gly(3-thienyl) = N[C@H](C(=O)O)c1ccsc1; X4 = CCCCC(N[*:1])C(=O)C(=O)[*:2]; Tle = CC(C)(C)[C@H](N)C(=O)O; ξPhg = NC(C(=O)O)c1ccccc1; Boc = CC(C)(C)OC(=O)*; CO = O=C([*:1])[*:2]; NHtBu = CC(C)(C)N*

Each compound was assayed against HCV NS3/NS4A protease (strain 1a) (Hepatitis C virus genotype 1a, UniProt P27958) (assay: biochemical). Details: Table 5; HCV NS3/NS4A protease, spectrophotometric assay, 30° C., pH 6.5; read-out: Ki* Range.

| Ki [µM] | SMILES |
| --- | --- |
| > 1 | CCCCC(NC(=O)[C@@H]1CC(C)(C)CN1C(=O)[C@@H](NC(=O)OC(C)(C)C)C(C)(C)C)C(=O)C(N)=O (some centres unmarked) |
| > 1 | COC(=O)C(=O)C(CC1CC1)NC(=O)[C@@H]1[C@@H]2[C@H](CN1C(=O)[C@@H](NC(=O)OC(C)(C)C)C(C)C)C2(C)C (some centres unmarked) |
| 0.001 to 0.1 | CC(C)(C)OC(=O)N[C@H](C(=O)N1C[C@@H]2[C@H]([C@H]1C(=O)NC(CC1CC1)C(=O)C(N)=O)C2(Br)Br)C1CCCCC1 (some centres unmarked) |
| 0.001 to 0.1 | CN(C)C(=O)[C@@H](NC(=O)CNC(=O)C(=O)[C@H](CC1CCC1)NC(=O)[C@@H]1[C@H]2OC(C)(C)O[C@H]2CN1C(=O)[C@@H](NC(=O)OC(C)(C)C)C(C)(C)C)c1ccccc1 |
| 0.001 to 0.1 | C=CCCC(NC(=O)[C@@H]1C2C(CN1C(=O)[C@@H](NC(=O)OC(C)(C)C)C1Cc3ccccc3C1)C2(Cl)Cl)C(=O)C(=O)NCC(=O)N[C@H](C(=O)N(C)C)c1ccccc1 (some centres unmarked) |
| > 1 | C=CCNC(=O)C(=O)C(CCCC)NC(=O)[C@@H]1[C@@H](OC(C)(C)C)CCN1C(=O)[C@@H](NC(=O)OC(C)(C)C)C(C)(C)C (some centres unmarked) |
| > 1 | CCCC(NC(=O)C1C2C(CN1C(=O)C(NC(=O)OC(C)(C)C)C(C)(C)C)C2(C)C)C(=O)C(=O)NCCc1ccccn1 (centres unmarked) |
| > 1 | CC(C)CC(NC(=O)[C@@H]1[C@H]2[C@@H](CN1C(=O)[C@@H](NC(=O)OC(C)(C)C)C1Cc3ccccc3C1)C2(C)C)C(=O)C(=O)O (some centres unmarked) |
| > 1 | C=CCCC(NC(=O)[C@@H]1[C@@H]2[C@H](CN1C(=O)[C@@H](NC(=O)OC(C)(C)C)C(C)(C)C)C2(C)C)C(=O)C(=O)NCC(=O)NCc1ccccc1 (some centres unmarked) |

| SMILES | Ki [µM] |
| --- | --- |
| CCCCC(NC(=O)[C@@H]1[C@H]2[C@@H](CN1C(=O)[C@@H](NC(=O)OC(C)(C)C)C(C)(C)C)C2(C)C)C(=O)C(=O)NCC(=O)N[C@H](C(=O)N(C)C)c1ccsc1 (stereo partly drawn) (Boc-[Tle][Pro(3S,4R-CMe2)][X4]G[Gly(3-thienyl)]-NMe2) | 0.001 to 0.1 |

Same assay, conditions: Table 6; HCV NS3/NS4A protease, 30° C., pH 6.5; read-out: Ki*

| Ki [µM] | SMILES |
| --- | --- |
| 0.001 to 0.1 | CC(C)(C)[C@H](NC(=O)NC12CC3CC(CC(C3)C1)C2)C(=O)N1C[C@H]2[C@@H]([C@H]1C(=O)NC(CC1CCC1)C(=O)C(N)=O)C2(Cl)Cl (some centres unmarked) |
| 0.001 to 0.1 | CC(C)(C)NC(=O)N[C@H](C(=O)N1C[C@H]2[C@@H]([C@H]1C(=O)NC(CC1CC1)C(=O)C(=O)NCC(=O)NCc1ccccc1)C2(Cl)Cl)C1CCCCC1 (some centres unmarked) |
| 0.101 to 1 | CC(C)(C)OC(=O)N[C@H](C(=O)N1C[C@@H]2CC(F)(F)C[C@@H]2[C@H]1C(=O)NC(CCC(F)F)C(=O)C(N)=O)C(C)(C)C (some centres unmarked) |
| 0.101 to 1 | C=CCCC(NC(=O)[C@@H]1[C@@H]2[C@H](CN1C(=O)[C@@H](NC(=O)OC(C)(C)C)C1CCCCC1)C2(C)C)C(=O)C(=O)NCCS(=O)(=O)NC(C)(C)C (some centres unmarked) |
| 0.101 to 1 | CC(C)(C)OC(=O)N[C@H](C(=O)N1C[C@H]2[C@@H]([C@H]1C(=O)NC(CC1CCC1)C(=O)C(N)=O)C2(F)F)C(C)(C)C (some centres unmarked) |
| 0.001 to 0.1 | CC(C)(C)OC(=O)N[C@H](C(=O)N1C[C@H]2[C@@H]([C@H]1C(=O)NC(CC1CC1)C(=O)C(=O)NCC(=O)OC(C)(C)c1ccccc1)C2(C)C)C(C)(C)C (some centres unmarked) |
| 0.001 to 0.1 | C=CCCC(NC(=O)[C@@H]1[C@@H]2[C@H](CN1C(=O)[C@@H](NC(=O)NC(C)(C)C)C(C)(C)C)C2(C)C)C(=O)C(=O)NCCC(=O)OC(C)(C)C=C (some centres unmarked) |
| 0.001 to 0.1 | CC1(OC(=O)N[C@H](C(=O)N2C[C@H]3[C@@H]([C@H]2C(=O)NC(CC2CC2)C(=O)C(N)=O)C3(C)C)C(C)(C)C)CCCCC1 (some centres unmarked) |
| 0.101 to 1 | CC(C)(C)OC(=O)N[C@H](C(=O)N1C[C@@H]2OC(C)(C)C[C@@H]2[C@H]1C(=O)NC(CC1CCC1)C(=O)C(N)=O)C1CCCCC1 (some centres unmarked) |
| 0.001 to 0.1 | CN(C)C(=O)[C@@H](NC(=O)CNC(=O)C(=O)C(CCC(F)(F)F)NC(=O)[C@@H]1[C@H]2CC(C)(C)O[C@H]2CN1C(=O)[C@@H](NC(=O)OC(C)(C)C)C(C)(C)C)c1ccccc1 (some centres unmarked) |
| 0.101 to 1 | C=CCCC(NC(=O)[C@@H]1[C@@H]2[C@H](CN1C(=O)[C@@H](NC(=O)NC(C)(C)C)C(C)(C)C)C2(C)C)C(=O)C(=O)NCC(=O)C(=O)OC(C)(C)C (some centres unmarked) |

| SMILES | Ki [µM] |
| --- | --- |
| CN(C)C(=O)C(NC(=O)CNC(=O)C(=O)C(CC1CC1(F)F)NC(=O)[C@@H]1[C@@H]2[C@H](CN1C(=O)[C@@H](NC(=O)NC(C)(C)C)C(C)(C)C)C2(C)C)c1ccccc1 (stereo partly drawn) ({NHtBu-CO}-[Tle][Pro(3R,4S-CMe2)][X67]G[ξPhg]-NMe2) | 0.001 to 0.1 |
| CN(C)C(=O)C(NC(=O)CNC(=O)C(=O)C(CC1CC1(F)F)NC(=O)[C@@H]1[C@@H]2[C@H](CN1C(=O)[C@@H](NC(=O)OC(C)(C)C)C(C)(C)C)C2(C)C)c1ccccc1 (stereo partly drawn) (Boc-[Tle][Pro(3R,4S-CMe2)][X67]G[ξPhg]-NMe2) | 0.001 to 0.1 |
